Test results reported in paper PMC12136788.
The list shows a part of the results.

B1: chr2:96373863:96373964:+|3pUTR|ENSG00000121152|unk|total|mutant (ssRNA)
RNA: GGGAGUUCUACAGUCCGACGAUCCCGAACUGGCAAAAUAUUUGAGUGUCCACCCGAUGAGUAUCAGACCCCGUCCUUACCCUCCGGGGGAUGCAGUCCUGGUUGUUAUCCAGGAUACACACCUGUCAGUAUAAGGCAGAAGAUCAACAGAGGAUUGAGCAUCA
B2: chr11:108172639:108172748:-|CDS|ENSG00000149308|unk|FALSE|unique (ssRNA)
RNA: GGGAGUUCUACAGUCCGACGAUCGUUAUCAUUAGUGAUGAUCCAUUUGUUUCCUCAGAUACUGAACUUACCAGUGCUGUUUCUAGUAUUAAUGGAGAAAACCUGCCAACUAUAAUCUUGUCUUCUCCUACUAAAUCACCUACUCAACAGAGGAUUGAGCAUCA
B3: chr1:22120052:22120517:-|CDS|ENSG00000162552|control|control|control (ssRNA)
RNA: GGGAGUUCUACAGUCCGACGAUCGUGCCACGCAACGCACAGUUCAAGCCGCACACAGAUGAGGACCUGGUGUACUUGGAGCCUAGCCCCGACUUCUGUGAGCAGGACAUGCGCAGCGGCGUGCUGGGCACGAGGGGCCGCACACAACAGAGGAUUGAGCAUCA
B4: chr14:52864448:52864598:-|CDS|ENSG00000073712|unk|FALSE|unique (ssRNA)
RNA: GGGAGUUCUACAGUCCGACGAUCGAUGGCAGCCUGCAGAUUAGCCUCCAAAGGCAAGACCAUGGCGGACAGUUCUUACAACUUAGAAGUUCAGAAUAUUCUUUCCUUUCUGAAGAUGCAGCAUUUAAACCCAGAUCCUCAGUUCAACAGAGGAUUGAGCAUCA
B5: ENSG00000107863:be:win_3351|CDS|ENSG00000107863|bound_else_gene|NA|bound_elsewhere_windowed (ssRNA)
RNA: GGGAGUUCUACAGUCCGACGAUCAAAAGACAAAGGCACAUGGAGAAAAGGCAUUCCAAGUAUCAUGAGAAAGACAUUUGAGAAAAAGCCAACUGCUACAGGAACUUUCGGCGUCCGACUAGAUGACUGCCCACCAGCUCAUACCAACAGAGGAUUGAGCAUCA
B6: chr6:145805060:145805161:-|CDS|ENSG00000118496|unk|total|mutant (ssRNA)
RNA: GGGAGUUCUACAGUCCGACGAUCAGAAGAUCCUAUGGGCCUCCAAGGAACCGAUCUGAUCACAGCAGCAUUGCUUUUUUGUCCCGGAGAUUCUCCAGGAGGGAGGGGUAUAUCUGACCGCCGCAUGGCUGAUAUUUAUCACAUCAACAGAGGAUUGAGCAUCA
B7: chr7:93926053:93926159:+|CDS|ENSG00000127920|unk|FALSE|unique (ssRNA)
RNA: GGGAGUUCUACAGUCCGACGAUCGUCUAAAUGUUCUGAAGAAAUAAAGAACUAUAUUGAAGAACGUUCUGGAGAGGAUCCUCUAGUAAAGGGAAUUCCAGAAGACAAGAACCCCUUUAAAGAAAAAGGCAGCUGUGUUAUUUCCAACAGAGGAUUGAGCAUCA
B8: chr9:35056615:35056731:-|3pUTR|ENSG00000165280|msi1|FALSE|unique (ssRNA)
RNA: GGGAGUUCUACAGUCCGACGAUCCCCUAUCCAACCUGGGUAGGUGGGUAGGGGCCACAGUUGCUGGAUGUUUAUAUAGAGAGUAGGUUGAUUUAUUUUACAUGCUUUUGAGUUAAUGUUGGAAAACUAAUCACAAGCAGUUUCCAACAGAGGAUUGAGCAUCA
B9: chr2:25742488:25742589:-|CDS|ENSG00000143970|unk|FALSE|unique (ssRNA)
RNA: GGGAGUUCUACAGUCCGACGAUCCACUUUAAGUAAGGAGAAUUACCUGUUCACUAGAGGCCAAACAUUUGAUGAAAAGACCCUAGCCAGAGAUUUAAUUCAGGCAGCACAGAAGCAGAUGGCUCAUGCAGUGAGAGGUAAGGCCAACAGAGGAUUGAGCAUCA
B10: chr3:11298707:11298833:+|CDS|ENSG00000197548|unk|FALSE|unique (ssRNA)
RNA: GGGAGUUCUACAGUCCGACGAUCAUAAUGGCGGCAGCUACGGGGGAUCCUGGACUCUCUAAACUGCAGUUUGCCCCUUUUAGUAGUGCCUUGGAUGUUGGGUUUUGGCAUGAGUUGACCCAGAAGAAGCUGAACGAGUAUCGGCAACAGAGGAUUGAGCAUCA
B11: chr5:159157431:159157536:-|3pUTR|ENSG00000145860|unk|FALSE|bound_elsewhere (ssRNA)
RNA: GGGAGUUCUACAGUCCGACGAUCCAAAAAGUGUUUUUCAGACCUCGGUAUUCCUAAUGUGGGAUGUGACUUUAUUUUAUUUUUAGUAGCAAAUUUGGAUGUAGACUGACAGACAUAGCUGAAUGUCUUAAUAAAUUUAAAUUUCAACAGAGGAUUGAGCAUCA
B12: ENSG00000114354:stop:overlap|stop_codon|ENSG00000114354|stop_codon|NA|stop_codon (ssRNA)
RNA: GGGAGUUCUACAGUCCGACGAUCCAGCCGCAGGCUCCACCUCAGCAGCCUCAACAGUAUGGUAUUCAGUAUUCAGCAAGCUAUAGUCAGCAGACUGGACCUCAACAACCUCAGCAGUUCCAGGGAUAUGGCCAGCAACCAACUCAACAGAGGAUUGAGCAUCA
B13: chr16:74449243:74449344:-|3pUTR|ENSG00000090863|msi1|FALSE|bound_elsewhere (ssRNA)
RNA: GGGAGUUCUACAGUCCGACGAUCUCUCCUAUCCUCCCAUCCUCCAGGCCUGUGGUGUGACUUCUGCCCCGAAGUUCCUACUAUAGUGAGUCAUCUGGGGAGAGGCCACUGAAAAGAGGCCUUCCCUUCCCAUUUCCUCCCCUGCAACAGAGGAUUGAGCAUCA
B14: chr3:133826890:133826991:-|3pUTR|ENSG00000154917|unk|FALSE|unique (ssRNA)
RNA: GGGAGUUCUACAGUCCGACGAUCUUUGAACGUGUUUCAGAUGUCAUGUGUUUAGUUUUUAUAUGUGUGUACAUAAUUAUAUAUAGAGAUAGACUUGUGUAUACACCUUCCACAAACACAUCCUCACGGAGAUACAUGUGCUCACAACAGAGGAUUGAGCAUCA

biological target: MSI1 full-length (mouse, UniProt Q61474 1-362); assay: nsRBNS (natural sequence RNA bind-n-seq); RBNS binding buffer (assumed for nsRBNS): 25 mM Tris pH 7.5, 150 mM KCl, 3 mM MgCl2, 0.01% Triton X-100, 500 ug/ml BSA, 20 U/ml SUPERase-In, 4 C; UNK is unkempt and MSI1 is Musashi-1; names of the RNAs are library labels; protein concentration not given here; high values mean tight binding
Chain of UniProt Q61474 (Q61474 whole entry): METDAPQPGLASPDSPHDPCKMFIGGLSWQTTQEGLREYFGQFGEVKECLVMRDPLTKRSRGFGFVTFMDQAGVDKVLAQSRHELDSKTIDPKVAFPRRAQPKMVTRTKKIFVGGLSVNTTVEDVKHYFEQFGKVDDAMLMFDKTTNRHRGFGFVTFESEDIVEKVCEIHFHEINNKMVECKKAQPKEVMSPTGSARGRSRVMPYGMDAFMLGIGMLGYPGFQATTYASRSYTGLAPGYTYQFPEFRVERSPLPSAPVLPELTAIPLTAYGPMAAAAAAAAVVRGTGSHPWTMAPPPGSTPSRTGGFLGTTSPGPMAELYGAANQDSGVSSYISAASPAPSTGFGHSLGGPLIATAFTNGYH

Binder | binding signal [enrichment R]
B1 | 0.261
B2 | 1.03
B3 | 0.446
B4 | 1.06
B5 | 0.372
B6 | 0.423
B7 | 0.308
B8 | 2.39
B9 | 0.626
B10 | 1.02
B11 | 23.3
B12 | 0.745
B13 | 0.52
B14 | 9.35
